This data set deals with the molecule itself. The data set is described as follows: AUC.

B1: BirA R119A variant, bio-5'-AMP bound (holoBirA^R119A) (enzyme)
chain: not shown
The term Kd denotes the constant that tells how readily two partners part at equilibrium. Read a high Kd as weaker binding. Turning to B1, binding was put at a Kd of 1100 µM.

Source of the values: paper PMC7759012 (Biochemistry, 2020).
